The text below walks through data of PMC4526674.

The target in assay [1] is Inactive, inhibitor-bound TG2 deletion mutant 1-465 (1-465-DP3-3) (human) (UniProt P21980). Briefly: dynamic light scattering; 0.2 mg/ml inhibitor-bound protein in 20 mM Tris pH 7.2, 150 mM NaCl with 9 mM (also 5 mM and 2.5 mM) CaCl2, 37°C; both purified.
Assay [2] shares this target. The assay can be described thus: dynamic light scattering; 0.2 mg/ml inhibitor-bound protein in 20 mM Tris pH 7.2, 150 mM NaCl with 1 mM EDTA, 37°C; both purified.
For assay [3] the target is unchanged. Briefly: cross-linking; BS3 (0.5 mM) capture of non-covalent complexes; DP3-3-treated protein pre-incubated with 5 mM CaCl2 for 30 min at 37°C in 20 mM HEPES pH 7.5, 150 mM NaCl; SDS-PAGE; both purified.
Assay [4] concerns the target TG2 deletion mutant 1-465, active, E. coli-produced (human) (UniProt P21980). The assay can be described thus: cross-linking; enzymatic self-crosslinking by TG2's own transglutaminase activity; 5 mM (or 1 mM) CaCl2, 37°C, TBS pH 7.4 (50 mM Tris HCl, 150 mM NaCl); products resolved by 4-20% gradient SDS-PAGE, Coomassie; both purified.
Assay [5] has as its target Recombinant human transglutaminase 2 (TG2), Sf9-produced (human) (UniProt P21980). Briefly: cross-linking; BS3 (0.5 mM) capture of non-covalent complexes; TG2 pre-incubated with 1 mM GTP for 30 min at 37°C in 20 mM HEPES pH 7.5, 150 mM NaCl; SDS-PAGE; both purified.

These are yes or no findings as the source states them, for the method shown.

B1: Inactive, inhibitor-bound TG2 deletion mutant 1-465 (1-465-DP3-3) (domain or fragment, UniProt P21980 1-465)
chain: MAEELVLERCDLELETNGRDHHTADLCREKLVVRRGQPFWLTLHFEGRNYEASVDSLTFSVVTGPAPSQEAGTKARFPLRDAVEEGDWTATVVDQQDCTLSLQLTTPANAPIGLYRLSLEASTGYQGSSFVLGHFILLFNAWCPADAVYLDSEEERQEYVLTQQGFIYQGSAKFIKNIPWNFGQFEDGILDICLILLDVNPKFLKNAGRDCSRRSSPVYVGRVVSGMVNCNDDQGVLLGRWDNNYGDGVSPMSWIGSVDILRRWKNHGCQRVKYGQCWVFAAVACTVLRCLGIPTRVVTNYNSAHDQNSNLLIEYFRNEFGEIQGDKSEMIWNFHCWVESWMTRPDLQPGYEGWQALDPTPQEKSEGTYCCGPVPVRAIKEGDLSTKYDAPFVFAEVNADVVDWIQQDDGSVHKSINRSLIVGLKISTKSVGRDEREDITHTYKYPEGSSEEREAFTRANHLNKL
modifications: active site covalently linked to the inhibitor Ac-P-DON-LPF-NH2 (DP3-3)
On to B1, for which the values for the binding entry in assay [1], in assay [2] and in assay [3] were “no binding (tested: 0.2 mg/ml)”, “no binding (tested: 0.2 mg/ml)” and “no binding”, respectively.

B2: TG2 deletion mutant 1-465, active, E. coli-produced (domain or fragment, UniProt P21980 1-465)
chain: MAEELVLERCDLELETNGRDHHTADLCREKLVVRRGQPFWLTLHFEGRNYEASVDSLTFSVVTGPAPSQEAGTKARFPLRDAVEEGDWTATVVDQQDCTLSLQLTTPANAPIGLYRLSLEASTGYQGSSFVLGHFILLFNAWCPADAVYLDSEEERQEYVLTQQGFIYQGSAKFIKNIPWNFGQFEDGILDICLILLDVNPKFLKNAGRDCSRRSSPVYVGRVVSGMVNCNDDQGVLLGRWDNNYGDGVSPMSWIGSVDILRRWKNHGCQRVKYGQCWVFAAVACTVLRCLGIPTRVVTNYNSAHDQNSNLLIEYFRNEFGEIQGDKSEMIWNFHCWVESWMTRPDLQPGYEGWQALDPTPQEKSEGTYCCGPVPVRAIKEGDLSTKYDAPFVFAEVNADVVDWIQQDDGSVHKSINRSLIVGLKISTKSVGRDEREDITHTYKYPEGSSEEREAFTRANHLNKL
As to B2, in assay [4], the binding entry is listed as “no binding (tested: 0.7 μM to 4.2 μM enzyme)”.

B3: Recombinant human transglutaminase 2 (TG2), Sf9-produced (enzyme, UniProt P21980 1-687)
chain: MAEELVLERCDLELETNGRDHHTADLCREKLVVRRGQPFWLTLHFEGRNYEASVDSLTFSVVTGPAPSQEAGTKARFPLRDAVEEGDWTATVVDQQDCTLSLQLTTPANAPIGLYRLSLEASTGYQGSSFVLGHFILLFNAWCPADAVYLDSEEERQEYVLTQQGFIYQGSAKFIKNIPWNFGQFEDGILDICLILLDVNPKFLKNAGRDCSRRSSPVYVGRVVSGMVNCNDDQGVLLGRWDNNYGDGVSPMSWIGSVDILRRWKNHGCQRVKYGQCWVFAAVACTVLRCLGIPTRVVTNYNSAHDQNSNLLIEYFRNEFGEIQGDKSEMIWNFHCWVESWMTRPDLQPGYEGWQALDPTPQEKSEGTYCCGPVPVRAIKEGDLSTKYDAPFVFAEVNADVVDWIQQDDGSVHKSINRSLIVGLKISTKSVGRDEREDITHTYKYPEGSSEEREAFTRANHLNKLAEKEETGMAMRIRVGQSMNMGSDFDVFAHITNNTAEEYVCRLLLCARTVSYNGILGPECGTKYLLNLNLEPFSEKSVPLCILYEKYRDCLTESNLIKVRALLVEPVINSYLLAERDLYLENPEIKIRILGEPKQKRKLVAEVSLQNPLPVALEGCTFTVEGAGLTEEQKTVEIPDPVEAGEEVKVRMDLLPLHMGLHKLVVNFESDKLKAVKGFRNVIIGPA
Consider B3, for which, in assay [5], the binding result is reported as “no binding (condition: with 1 mM GTP)”.
